# Tests used:
# [1] = tested on: A/California/07/2009 virus; experiment: Neutralizing antibody titers by microneutralization assay in sera of vaccinated mice; assay type: in vivo, BALB/c mice; details: concomitantly administered with A/California/07/09 subunit influenza vaccine in murine skin
# [2] = tested on: IFN-γ-producing and IL-4-producing cells; experiment: IL-4 and IFN-γ secreting cells (ELISPOT) in skin-draining lymph nodes and spleens; details: concomitantly administered with A/California/07/09 subunit influenza vaccine in murine skin
smiles,measurement,setting,value
"C=CC(=O)Nc1ccc2ncnc(Nc3cccc(Br)c3)c2c1 [PD168393, N-[4-(3-bromoanilino)quinazolin-6-yl]prop-2-enamide]",influenza-specific neutralizing antibody titters,[1],significantly enhanced
same,cellular immune responses,[2],significantly enhanced

# Source: patent US10034931B2, “Use of EGFR pathway inhibitors to increase immune responses to antigens” (Emory University, priority 2013, dated 2018)
